# Reference: the antibiotic and cytotoxicity screens of Wong et al. (2023)
# The other results are listed elsewhere or left out.
# System: HSkMC (human skeletal muscle cells)
# Test: cytotoxicity call (relative viability < 0.9)
# Conditions: 10 µM
row,SMILES,cytotoxicity call
1,COc1ccc(S(=O)(=O)Nc2ccc3c(c2)C(=O)N([C@@H](C)CO)C[C@@H](C)[C@@H](CN(C)CC2CCCCC2)OCCCC[C@H](C)O3)cc1,inactive
2,NC(=O)NC(=O)C[C@H]1Nc2ccccc2NC1=O,inactive
3,COc1cccc(NC(=O)N(C)C[C@H]2Oc3cc(C#CC4(O)CCCC4)ccc3S(=O)(=O)N([C@@H](C)CO)C[C@@H]2C)c1,inactive
4,C[C@@H]1CN([C@H](C)CO)C(=O)c2cc(NS(=O)(=O)c3cn(C)cn3)ccc2O[C@@H]1CN(C)C(=O)NC1CCCCC1,inactive
5,C[C@H](CO)N1C[C@H](C)[C@H](CN(C)S(=O)(=O)c2ccccc2)OCCCC[C@H](C)Oc2ccc(NS(C)(=O)=O)cc2C1=O,inactive
6,O=C(O)CCC(=O)O,inactive
7,COc1ccccc1S(=O)(=O)N(C)C[C@H]1Oc2ncc(Br)cc2C(=O)N([C@@H](C)CO)C[C@H]1C,inactive
8,O=c1[nH]cc(F)c(=O)[nH]1,inactive
9,Cc1ccc(S(=O)(=O)N(C)C[C@@H]2Oc3ccc(NC(=O)CCCN(C)C)cc3CC(=O)N([C@@H](C)CO)C[C@H]2C)cc1,inactive
10,C[C@H](CO)N1C[C@H](C)[C@H](CN(C)S(C)(=O)=O)Oc2cc(C#CCN(C)C)ccc2S1(=O)=O,inactive
11,COc1ccc([Si](C)(C)[C@@H]2[C@@H](CCO)O[C@]3(C(=O)N(Cc4cccc(N5C(=O)COc6ccccc65)c4)c4ccccc43)[C@H]2C)cc1,inactive
12,COc1ccc(CN(C)C[C@@H]2OCCCC[C@@H](C)Oc3ccc(NC(=O)Nc4c(C)noc4C)cc3C(=O)N([C@@H](C)CO)C[C@@H]2C)cc1,inactive
13,CC(C)C[C@@H](C(=O)N[C@@H](Cc1ccc(OCc2ccccc2)cc1)C(=O)NC(C)(C)C)N(C)Cc1ccc(C(C)(C)C)cc1,inactive
14,CN(C)CC#Cc1cncc(C(=O)NN)c1,inactive
15,C[C@H]1CN([C@@H](C)CO)C(=O)CCCn2cc(nn2)CO[C@H]1CN(C)S(=O)(=O)c1ccc(C#N)cc1,inactive
16,C[C@H](CO)N1C[C@H](C)[C@@H](CN(C)Cc2ccc(C(F)(F)F)cc2)Oc2ccc(NC(=O)CCCCCC(=O)Nc3ccccc3N)cc2CC1=O,inactive
17,C[C@H](CO)N1C[C@H](C)[C@H](CN(C)CC2CCCCC2)Oc2ccc(NC(=O)Cn3cnnn3)cc2CC1=O,inactive
18,Cc1noc(C)c1S(=O)(=O)Nc1ccc2c(c1)C(=O)N([C@H](C)CO)C[C@H](C)[C@@H](CN(C)C(=O)Nc1cccc3ccccc13)OCCCC[C@H](C)O2,active
19,CSc1c(-c2ccc(Cl)cc2)[nH]c2ccccc12,inactive
20,CN(C)CCN1CCc2ncc(Cn3cncn3)n2CC1,inactive

row,SMILES,cytotoxicity call
1,C[C@@H]1CCCCO[C@@H](CN(C)C(=O)Cc2ccccc2)[C@@H](C)CN([C@@H](C)CO)C(=O)c2cc(NS(=O)(=O)c3ccc(F)cc3)ccc2O1,inactive
2,CC(C)NC(=O)Nc1cccc2c1O[C@H](CN(C)Cc1ccc(Oc3ccccc3)cc1)[C@H](C)CN([C@H](C)CO)C2=O,inactive
3,CCOC(=O)C(CCc1ccccc1)NC(C)C(=O)N1C(C(=O)O)CC2CCCCC21 (stereo not given),inactive
4,CO[C@@H]1CN(C)C(=O)c2ccc(NC(=O)C3CC3)cc2OC[C@@H](C)N(C(=O)CN2CCOCC2)C[C@H]1C,inactive
5,CCOC(=O)[C@@H](N)Cc1ccc(O)c(O)c1,inactive
6,C[C@H]1CN([C@@H](C)CO)C(=O)c2cc(NC(=O)Nc3ccccc3)ccc2O[C@@H]1CN(C)S(C)(=O)=O,inactive
7,C[C@@H]1CCCCO[C@@H](CN(C)CC2CC2)[C@H](C)CN([C@@H](C)CO)C(=O)c2cc(NC(=O)Nc3ccc(F)cc3)ccc2O1,inactive
8,C[C@@H]1CN([C@@H](C)CO)C(=O)c2cc(NC(=O)CCC(F)(F)F)ccc2O[C@@H](C)CCCCO[C@H]1CN(C)Cc1ccncc1,inactive
9,COC(=O)c1ccc([C@H]2C=C(C(=O)N3CCOCCOCCOCCOCC3)O[C@@H](OCCCCO)C2)cc1,inactive
10,Cc1ccc(S(=O)(=O)Nc2cccc3c2O[C@H](CN(C)CC2CC2)[C@H](C)CN([C@@H](C)CO)C3=O)cc1,inactive
11,C[C@H]1CN([C@@H](C)CO)C(=O)c2cccc(NS(C)(=O)=O)c2O[C@H]1CN(C)C(=O)Nc1ccc(C(F)(F)F)cc1,inactive
12,COc1ccc2[nH]c3c(-c4cccc5ccccc45)nccc3c2c1,active
13,CCS(=O)(=O)Nc1ccc2c(c1)C(=O)N(C)[C@@H]1CC[C@H](CC(=O)NCc3ccccc3F)O[C@@H]1CO2,inactive
14,COCCNC(=O)C[C@H]1CC[C@@H]2[C@H](COC[C@H](O)CN2C(=O)Nc2ccccc2OC)O1,inactive
15,CO[C@@H]1CN(C)C(=O)c2cc(NC(=O)C3CCOCC3)ccc2OC[C@@H](C)N(Cc2cccnc2)C[C@@H]1C,inactive
16,C[C@@H]1CN([C@@H](C)CO)S(=O)(=O)c2ccc(-c3ccc(F)cc3)cc2O[C@H]1CN(C)S(C)(=O)=O,inactive
17,O=S1(=O)CCCCN1,inactive
18,COc1ccc(S(=O)(=O)N(C)C[C@@H]2OCCCC[C@@H](C)Oc3ccc(NS(C)(=O)=O)cc3C(=O)N([C@H](C)CO)C[C@H]2C)cc1,inactive
19,COc1ccc(CN(C)C[C@H]2OCCCC[C@@H](C)Oc3ccc(NC(=O)Nc4cccc5ccccc45)cc3C(=O)N([C@@H](C)CO)C[C@@H]2C)cc1,inactive
20,C[C@H]1CN([C@@H](C)CO)C(=O)c2cc(NS(C)(=O)=O)ccc2O[C@H]1CN(C)Cc1ccc(C(=O)O)cc1,inactive
